Results reported in the supplement of paper PMC11417369.
± gives the standard deviation of the averaged measurements. The list shows a part of the results.

system: PfAP2-G AP2 domain (GST-tagged); assay: gcPBM binding intensity (ln(normalized median fluorescence intensity)); higher = stronger DNA binding
Procedure, shortened: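 GST-tagged P. falciparum DNA-binding domains, expressed in E. coli (about 25 μg on average), were applied for 1 h to an Agilent 4 × 180k array of primer-extended double-stranded 36-bp intergenic genomic probes plus negative controls. The binding buffer was 1× PBS with 1% milk, 0.2 mg/ml BSA, 0.5% salmon testes DNA and 0.03% Triton X-100. Bound protein was detected with Alexa488 anti-GST antibody and scanned at 488 nm. Binding intensity is the highest Masliner-normalised natural-log median intensity across replicate spots of either probe orientation.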

| Sequence | gcPBM binding intensity (ln) |
| --- | --- |
| TAAAATTTTAACAAAAAAAAAAAAAAAAAAAGAAAA [CACACA_negctrl_site1335] | 9.77 ± 0.12 |
| TAACAATAACTTTATACACACATAATATAAATATAT [CACACA_site7635] | 9.87 ± 0.014 |
| CAAAAACATACCTACACACACAATATGTATATATAA [CACACA_site3514] | 9.955 ± 0.064 |
| TATATCATCATGTATGTACACACATACATATATTAT [CACACA_site8387] | 11.2 ± 0.72 |
| TACGTATTATAAATATGTACATATAATATGTATATA [XGTACX_site468] | 11.2 ± 0.62 |
| ATAAAGAAAAATAGAAGTACATATATGCATGTTAAT [XGTACX_site4480] | 11.3 ± 0.72 |
| AACAATAAAAATAATTGTACAAGTCTAAAAAAAATT [XGTACX_site20] | 11 ± 0.53 |
| ATAACAAAATAATAATGTACGTATAAATATAATTTA [XGTACX_site6049] | 11.5 ± 0.92 |
| AAAATGAATAAAAATACACACATATATGTTATTCTC [CACACA_site2671] | 9.755 ± 0.078 |
| AAATTGAGACAACAGGTGCATATAAATATACAGTGT [GTGCAC_site9634] | 10.2 ± 0.11 |
| TAACAATATCTAGATACACACACATATCTCTCAATC [CACACA_site8122] | 9.985 ± 0.064 |
| TTAATACCCGGACACACACACACAAAATAAAATACA [CACACA_site4296] | 11 ± 0.69 |
| ATTTATTTATTTAGCTGTACATTTATACAGAACGAT [XGTACX_site3336] | 11.2 ± 1 |
| CCAACATGCAGACGCACACACAAAAAAAGCATGCAT [CACACA_site74] | 10.2 ± 0.22 |
| AATAATATATATATTACACACTAATTGTATTATATA [CACACA_site448] | 9.8 ± 0.014 |
| AATTTTTGTTACAAGATGCACTTAATTTTTCTAAAT | 10.1 ± 0.18 |
| AATAAAAATTCAAGTTGTACTTTTTTAAAAATACAA [XGTACX_site3949] | 11.6 ± 0.87 |
| CATACATTATAAGATACATGCATATATCTGAACATA [TGCATGCA_site797] | 9.67 ± 0.13 |
| ATGTGGAAATAGAGCACACATATATATAATATATAT [CACACA_site884] | 10 ± 0.11 |
| GCAAAACATTTTTAAAATAAAAATAATAAAATATAT [CACACA_negctrl_site219] | 9.86 ± 0.14 |
| AACGAAGCATAAAATGTTATGTATATATATAAATAT [TGCATGCA_negctrl_site304] | 9.67 ± 0.099 |
| TACCAAAAAAAAAAAATAATAATAAAAAAAAAAAAA [TGCATGCA_negctrl_site11] | 9.485 ± 0.049 |

| Sequence | gcPBM binding intensity (ln) |
| --- | --- |
| ATCATTTTGTGTTCAAGTACATAATGTTTTACACAA [XGTACX_site3565] | 11 ± 0.61 |
| AATGATTTTAAATGAACATAATTTATATTCATAACA [GTGCAC_negctrl_site256] | 9.64 ± 0.12 |
| GTGTGCCAAATTAGCACACACATATATACATGAATT [CACACA_site7346] | 10.2 ± 0.23 |
| TATTCATTAAACCATACACACATAATTTTTTTATAA [CACACA_site4618] | 9.895 ± 0.078 |
| ATATATTATATAAAAAGTACTAAAATAGTAAGATGT [XGTACX_site7493] | 11.2 ± 0.7 |
| ACACATAATATAAAGGTGCTATATTGTATTCATTTT [GTGCAC_site9457] | 9.69 ± 0.23 |
| TTTTCATACACTGCTAGTATATACTACCACTGACAT [GTGCAC_negctrl_site514] | 10.4 ± 0.23 |
| AAACATATATTAAGCACACACAAACAAAAAAACAAA [CACACA_site2549] | 10.2 ± 0.27 |
| TGCAAAAAAAAAAAAAAAAAATATATGGAAATATAT [GTGCAC_negctrl_site257] | 9.51 ± 0.18 |
| ACATTGAACAAAATAGTAAGCACATATATATATATA [GTGCAC_negctrl_site679] | 10.1 ± 0.37 |
| TGATTCATTGATAAGGGTACATTTATAATTATGATA [XGTACX_site6319] | 11 ± 0.61 |
| ACGTATCAATTTATTGGTACACATAAATATATATAT [XGTACX_site5556] | 11.3 ± 0.92 |
| ATGATAATTTTTTTCTCACACACAAATATTTTAATC [CACACA_site3665] | 9.915 ± 0.035 |
| ATGTTCCATTTTACTTGTACTAATTTTTTCCTATCT [XGTACX_site6474] | 11.3 ± 0.71 |
| TATATTATTTTCTTTTGTACACATATATATCAGTGT [XGTACX_site664] | 11.3 ± 0.59 |
| CAATAATATATATATTGTACATTTTTTTTTATTATT [XGTACX_site3149] | 11 ± 0.61 |
| AAAGATTCTTTGAATTGTACAAATATATTTACTCAC [XGTACX_site8772] | 10.7 ± 0.33 |
| ATAATAATAAAGTATGCATGCATATAATATAATATA [TGCATGCA_site796] | 9.79 ± 0.11 |
| TTTTTATTGCAATACTTATATTTTTTTATGATTAAA [TGCATGCA_negctrl_site147] | 10.1 ± 0.16 |
| AAAAAATCACAACACACACACACACTAATAAAAAAA [CACACA_site8410] | 10.1 ± 0.21 |
| ACTGTAAATTTATTCGGTACACATATAAATAATATT [XGTACX_site7346] | 11.1 ± 0.64 |
| AAATCACATAAAACATAATCAAATGAAATATAATCA [CACACA_negctrl_site123] | 9.47 ± 0.38 |

| Sequence | gcPBM binding intensity (ln) |
| --- | --- |
| TAAATATTATTATATACATGCACTTACAACTTTTTT [TGCATGCA_site877] | 10.04 ± 0.092 |
| TATTGTAAAAAGATTACACACGTTCTATATACTTTT [CACACA_site5379] | 9.88 ± 0.26 |
| AATAAAAAAATATATTGTACTAATAATTATATGTTT [XGTACX_site2246] | 11 ± 0.67 |
| ATTATTTTTAAAAATTGTACAGTATAAGAGAGAAAT [XGTACX_site7094] | 11.2 ± 0.61 |
| ACAGTAGCCAGTAACTGTACGGATTGTAGAGATCAG [XGTACX_site4873] | 11.3 ± 0.7 |
| ATAATATTTAGGTGTGCACACAAACATACATATATA [CACACA_site9120] | 10.7 ± 0.4 |
| TTAATGGCAAAATAGGCACACACACCGATACATATA [CACACA_site8263] | 10.2 ± 0.15 |
| TGGAAATTCTCAGGAGTGCATATTTGCAGTTTACGT [GTGCAC_site9768] | 10.3 ± 0.25 |
| TAGATACATAAAAGTGGTACATATATATATATATAT [XGTACX_site6263] | 11.4 ± 0.97 |
| AATATTTATATTTACACACACATAATACCTATATGT [CACACA_site6167] | 9.9 ± 0.11 |
| ATAATAAATTATTATGTACACACATAATAGTATATA [CACACA_site8538] | 11.3 ± 0.88 |
| ATGGTTAAAAAAAGCATACACACTATCCTCTTTGCT [CACACA_site2552] | 9.925 ± 0.021 |
| TTTGTTGACGGACACACACACATACAGATATATATA [CACACA_site5292] | 11.4 ± 1 |
| CCGTTGAACATATATGCACACACATAAAATAAAAAA [CACACA_site8761] | 10.2 ± 0.26 |
| TTTTTGTCTGCATACGCACACACGTGTACCATCTTA [CACACA_site1173] | 11.2 ± 0.7 |
| TGGTTACTGTCATTAGTTATTTCTTGTTGACAATTA [CACACA_negctrl_site416] | 9.97 ± 0.014 |
| ATATTTTTTTTTTTTTGTACATATATCATTATATAT [XGTACX_site866] | 10.8 ± 0.47 |
| GAGAGTAAAACAAATATACACACCATAAAGTTATAA [CACACA_site1686] | 9.93 ± 0.16 |
| ATTTCGTTCTTTTATGCACACTCAACATATAAATTA [CACACA_site8322] | 10.5 ± 0.38 |
| ATATATATATATAAATGTACATATGTATAATTCATA [XGTACX_site6679] | 10.9 ± 0.53 |
| TTCTCACTTTTAAATTTTATTCAAAAATAAGGAAAG [XGTACX_negctrl_site444] | 9.89 ± 0.34 |
| TAGAATGTATGTAGTGCACACCTCTATAATATATTA [CACACA_site1873] | 10.6 ± 0.45 |

| Sequence | gcPBM binding intensity (ln) |
| --- | --- |
| AACTTTGGCAAACACACACACACACCCACACCCACA [CACACA_site588] | 10.5 ± 0.45 |
| TATTTTTCCATATGCACACACACCGTATCTAGAATA [CACACA_site6654] | 10.3 ± 0.22 |
| TACATAAACATTTATACACACATTATGTATACATAT [CACACA_site405] | 10.04 ± 0.035 |
| TTTTTGTAATGACACACACACAAACAGAAAAAATAA [CACACA_site7062] | 10.4 ± 0.35 |
| TTTTTTTTTTGCACGTGTACATAAAAATATATATAT [XGTACX_site3116] | 11.6 ± 1 |
| AAAATATATTCAACTTGTACATATATATATATATAT [XGTACX_site7629] | 11.1 ± 0.76 |
| ATATATGTGCTAAAATGTACATAGTATAATATATTT [XGTACX_site1949] | 10.9 ± 0.37 |
| TTTAATCATTTTAGCTTACACACAAAATTTTGTTAT [CACACA_site2938] | 10.015 ± 0.007 |
| ATATTTAAGATTTAATCACACACATATATATTATAT [CACACA_site8946] | 9.83 ± 0.028 |
| ATAAAATAAAGGAAAAATATTAAGTTTTAAGAAAAT [CACACA_negctrl_site1066] | 9.66 ± 0.2 |
| TTATATATTTTGATTGCACACAGAATTTAAATCATG [CACACA_site8735] | 10.2 ± 0.12 |
| ATATGTATTTAATTCACACAAAAATATGTTCATGAA [CACACA_site5223] | 9.92 ± 0.014 |
| ATATTATTAATATATTGTACTTTTTTTTTTTTATTT [XGTACX_site496] | 11.5 ± 0.91 |
| CACATTATGTATCATACACACAAATAAATATATAAT [CACACA_site4505] | 10.4 ± 0.19 |
| ATATATTAATAATAAATTAAAAGGAGTAACATTTTC [CACACA_negctrl_site320] | 10.1 ± 0.11 |
| TGAAAATAATTATAGGTGCATAAACATACGGATCTT | 10.21 ± 0.021 |
| TTTTTTTTGTATTTTTCACACACTCTCTATCTCTCT [CACACA_site8655] | 10 ± 0.14 |
| TATAAAAATAATATTACACACATGTAAAATGCCCGT [CACACA_site7522] | 9.96 ± 0.099 |
| AAGAAAATAAAGGATATGAAAAATAAAAAAAAGGAG [TGCATGCA_negctrl_site265] | 10.3 ± 0.27 |
| AGGTTAAAAATAAATACACACATTTTATGGGTGTAT [CACACA_site4702] | 9.87 ± 0.028 |
| TTTTTTTTTTTCTTTGCACACAGATAACTTGAAATT [CACACA_site2184] | 10.1 ± 0.25 |
| AATTTAATTATGGTAACACACAATAAAAAAAAATCT [CACACA_site568] | 10.4 ± 0.42 |
